Measured values: PubChem BioAssay AID485367 (National Center for Advancing Translational Sciences (NCATS), 2010)
Screen size: about 330,000 compounds; about 560 (0.17%) were called active. Inconclusive results (about 1%) are left out. Calls follow the shape of the dose curve; as a rule, active = well fitted inhibition curve with a large enough effect; inconclusive = small, poorly fitted or top-dose-only effect, or effect the other way; inactive = flat fitted curve, though single readings scatter. This is a selection; strong and weak results do not stand in their true shares. More than one record can exist for a structure, and the calls need not agree.

What follows are compounds tested against ATP-dependent 6-phosphofructokinase (Trypanosoma brucei brucei) (UniProt O15648) (assay: qHTS Assay to Find Inhibitors of T. brucei phosphofructokinase). Details: T. brucei PFK, ADP-Glo luminescence; series mostly up to 57.5 µM; activity, negative = inhibition: at the top concentration.
Excerpt: NIH Molecular Libraries Probe Production Network [MLPCN] NIH Chemical Genomics Center [NCGC] Grant: 1 R03 MH092153-01 PI Name: Malcolm Walkinshaw, University of Edinburgh NCGC Assay Overview: Various species of the protozoan family Trypanosomatidae are responsible for a range of serious human diseases in tropical and subtropical areas of the world. […] Many of the disorders caused by trypanosomatids are fatal if left untreated, but most currently used drugs are inefficient and toxic. […] Oxidative metabolism involving the mitochondrial tricarboxylic acid cycle and oxidative phosphorylation are repressed in these parasites, and recent RNA interference (RNAi) experiments have shown that even partial depletion of certain individual glycolytic enzymes can lead to the death of cultured parasites. One such glycolytic enzyme, phosphofructokinase (PFK), catalyzes the formation of fructose-1,6-bisphosphate (F1,6BP) and ADP from fructose-6-phosphate (F6P) and ATP, and in many metabolic circumstances makes an important contribution to the control of flux through the glycolytic pathway. As a specific glycolytic target, PFK is particularly attractive as it catalyzes the first irreversible step in glycolysis, and structural and kinetic studies have shown very substantial and essential differences from corresponding host enzymes, allowing for the discovery of parasite-selective inhibitors. The goal of this screen is to find small-molecule inhibitors of T. brucei PFK using a biochemical assay that measures PFK activity as a function of ADP production. A luminescence-based assay for T. brucei PFK activity has been developed which uses luciferase to detect production of ADP. Traditional luciferase-based nucleotide detection reagents rely on ATP production as a direct substrate for the luciferase reaction; however, PFK catalyzes the transfer of a phosphate from ATP to F6P, resulting in the net depletion of ATP. To directly measure the ADP product of the PFK reaction, we used the ADP-Glo detection kit (Promega), which utilizes two separate reactions to 1) deplete all remaining uncatalyzed ATP and 2) convert all remaining ADP to ATP, which is then detected through a traditional luciferase-coupled reaction. Compounds were screened as a concentration-titration series that ranged from 57 uM to 0.7 nM.
NCGC Assay Protocol Summary: NCGC Assay Protocol Summary: Substrate buffer was dispensed into white, solid 1536-well plates at 3uL/well in 0.1M triethanolamine (TEA) buffer, pH 8.0, containing final concentrations of 5 mM MgCl2, 0.01% Tween20, 0.5 mM fructose-6-phosphate (F6P) and 0.1mM ATP. Then, 23 nL of compounds or DMSO were delivered to each well using a pin tool. One uL T. brucei PFK (0.1M TEA, 0.01% Tween20, 0.1% bovine serum albumin (BSA) and 1.25nM PFK, final concentrations) was then dispensed, and plates were incubated at room temperature for 45 min. The luminescent detection reagent, ADP-Glo (Promega), was then added in two steps: the first reagent, ADP-Glo (which converts remaining uncatalyzed ATP), was added at 2.5uL/well and incubated for ten minutes at room temperature, and the second component, Kinase Detection reagent (which converts ADP to ATP as a substrate for luciferase-based luminescence), was added immediately after at 5uL/well, followed by one final ten minute room temperature incubation. The plates were measured on a ViewLux plate reader for luminescent signal using a clear filter with a one second exposure. The %Activity was determined from the corrected luminescence values. As no specific T. brucei PFK inhibitors have been identified in the literature, 1x (1.25nM) and 0x PFK enzyme controls (untreated) were included to normalize %Activity of identified inhibitors; 0x enzyme values corresponded to 100%Activity (full inhibition), while 1x PFK enzyme values were used to normalize 0%Activity (no inhibition). Concentration-response curves were fitted to the signals arising from the resulting luminescence. […]
Also: nearly all actives have a fitted effect of over 60% in size.
Potency is read from the fitted curve at half-maximal effect.

Sequence of UniProt O15648 (O15648 whole entry, looked up): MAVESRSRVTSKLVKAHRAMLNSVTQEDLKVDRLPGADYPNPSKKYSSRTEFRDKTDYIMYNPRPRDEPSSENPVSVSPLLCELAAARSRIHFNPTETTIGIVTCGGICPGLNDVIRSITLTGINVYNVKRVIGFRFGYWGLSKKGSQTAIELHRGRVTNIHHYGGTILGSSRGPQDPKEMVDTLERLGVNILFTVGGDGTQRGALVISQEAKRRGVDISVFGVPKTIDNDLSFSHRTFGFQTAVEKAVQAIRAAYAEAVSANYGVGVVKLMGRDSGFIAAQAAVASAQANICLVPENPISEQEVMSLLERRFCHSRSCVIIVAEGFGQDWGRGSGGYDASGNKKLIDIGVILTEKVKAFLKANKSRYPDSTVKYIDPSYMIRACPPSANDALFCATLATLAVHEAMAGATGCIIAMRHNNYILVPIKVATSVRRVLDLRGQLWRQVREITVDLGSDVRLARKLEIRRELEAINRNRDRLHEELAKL

activity, negative = inhibition, inactive:
CC(C)(C)OC(=O)C[C@@H]1C/C=C\C[C@H](CC(=O)NCCO)C(=O)NC[C@H](c2ccccc2)OC1=O 0.641%
C[C@@H]1O[C@@H](OC2C(O)C(OCCc3ccc(O)c(O)c3)OC(CO)C2OC(=O)/C=C/c2ccc(O)c(O)c2)[C@H](O)[C@H](O)[C@H]1O (some centres undefined) -4.32%
CC(C)(C)OC(=O)C[C@H]1C/C=C\C[C@@H](CC(=O)NCCO)C(=O)NC[C@H](c2ccccc2)OC1=O -6.4%
COC(=O)/C(C(C)=O)=C(/C=C/C=C/N(C)C)N(C)C -2.89%
CN(C)CCC(c1ccc(Br)cc1)c1ccccn1 (centres undefined) -1.19%
CC(C)(C)OC(=O)C[C@@H]1C/C=C\C[C@H](CC(=O)NCCO)C(=O)NC[C@@H](c2ccccc2)OC1=O 9.12%
COc1ccccc1/C=C\C=N\n1c(-c2ccc(Cl)cc2)n[nH]c1=S -21%
COC(=O)[C@@]12CCCN1[C@H](c1ccc(-c3ccccc3)cc1)[C@H]1C(=O)N(C)C(=O)[C@H]12 -8.21%
CN(Cc1ccco1)Cc1ccc(O)c2ncccc12 -14.6%
CC(C)(C)OC(=O)C[C@H]1C/C=C\C[C@H](CC(=O)N(CCO)Cc2ccccc2)C(=O)N[C@H](C(C)(C)C)COC1=O -3.51%
CC(C)(C)OC(=O)C[C@H]1C/C=C\C[C@@H](CC(=O)N(CCO)Cc2ccccc2)C(=O)N[C@H](C(C)(C)C)COC1=O 4.18%
Cc1ccc(C(O)(C(=O)NNc2ccc3ccccc3n2)c2ccc(C)cc2)cc1 6.45%
NC(=O)C1CCN(c2nc(-c3ccc4occc(=O)c4c3)cs2)CC1 10.3%
CC(=O)C[C@H](O)CC(=O)[C@H]1OC(=O)[C@@H](C)CCCCc2ccccc21 5.81%
O=C(CCCN1C(=O)/C(=C\c2cccs2)SC1=S)Nc1cccnc1 -3.3%
C=CC[C@@H](CC(=O)N[C@H](CO)Cc1ccccc1)C(=O)N[C@@H](COC(=O)[C@@H](CC=C)Cc1ccc(F)cc1)Cc1ccccc1 0%
Cc1nc(C)c(/C(O)=C\c2nc3ccc([N+](=O)[O-])cc3oc2=O)o1 -15.7%
Cc1ccc(S(=O)(=O)N2C[C@@H]3[C@H]4CC[C@H](C4)[C@@H]3[C@@H](C)[C@@H]2c2ccco2)cc1 -3.29%
CCN1C(=O)/C(=C/c2nc3ccccc3c(=O)n2-c2ccccc2)c2ccccc21 -2.66%
CCn1c(SCC(=O)N/N=C/C(C)=C/c2ccco2)nnc1-c1ccccc1 -9.96%
N#Cc1ccc(N=c2ssnc2Cl)cc1 -14%
CC(=O)C[C@H](O)CC(=O)[C@H]1OC(=O)[C@H](C)CCCCc2ccccc21 0%
CC(C)NC[C@H](O)c1ccc(O)c(O)c1 -9.09%
CC(/C=C\c1cccnc1)=C/C(=O)O 0.844%
CCSc1nc2ccccc2n1C(=O)/C=C\c1ccc(OC)c(OC)c1 1.99%
O=[N+]([O-])c1ccc(SCCc2ccncc2)cc1 -17.6%
CN1CCN(C(=O)/C(=C/c2ccccc2)c2ccccc2)CC1 -0.21%
CCOc1cc(/C=C2/NC(=O)NC2=O)cc([N+](=O)[O-])c1O 28.7%
CN(C)/C=C1\C=C(c2ccccc2)OC1=O -29.9%
CCOC(=O)CN1C(=O)N[C@H](c2ccc(Br)cc2)C(C(C)=O)=C1C -3.74%
CN(C)CCCNc1cc(O)c2ncccc2c1 -12.9%
C[C@@H](NC(=O)c1nc[nH]c1C(=O)NCc1ccccc1)c1ccccc1 1.87%
CC(C)(C)OC(=O)C[C@H]1C/C=C\C[C@H](CC(=O)NCCO)C(=O)NC[C@@H](c2ccccc2)OC1=O -6.55%
CN(Cc1ccco1)c1ncnc2ccc(-c3ccoc3)cc12 -25.2%
Oc1cc(O)c2c(c1)O[C@H](c1ccc(O)c(O)c1)[C@@H](O)C2 -10.9%
Cc1ccc(NC(=O)CN2C(=O)N/C(=C\c3ccco3)C2=O)cc1 -0.306%
Cc1ccc(S(=O)(=O)/N=C2/NC(=O)/C(=C/c3ccccc3)S2)cc1 9.57%
CCOC(=O)/C(=C\C=C1/Sc2ccccc2N1CC)C(C)=O 5.27%
CC(C)(C)OC(=O)C[C@H]1C/C=C\C[C@@H](CC(=O)NCCO)C(=O)NC[C@@H](c2ccccc2)OC1=O 11.1%
S=C(Nc1ccccn1)c1ccccn1 -15.8%
O=C1OC(c2ccccc2)=C/C1=C\N1CCOCC1 -26.8%
C=CC[C@@H](CC(=O)N[C@@H](CO)Cc1ccccc1)C(=O)N[C@H](COC(=O)[C@@H](CC=C)Cc1ccc(F)cc1)Cc1ccccc1 1.67%

Potency, active:
CS(=O)(=O)N1CC(C(=O)NC2CC2)Oc2ccc(Cl)cc21 (centres undefined) 21.3 µM
COc1ccccc1C(=O)Nc1ccc2c(c1)C(=O)NC2=O 23.9 µM
FC(F)(F)c1cccc(NC(=S)Nc2ccc(Cl)c(Cl)c2)c1 9.53 µM
O=C(O)c1ccc(NCc2cccc(Br)c2)cc1 21.3 µM
Cc1nc(N)nc(SCc2ccc([N+](=O)[O-])cc2)c1N 13.5 µM
C#CCNc1ccc([N+](=O)[O-])cc1 23.9 µM
Cc1cc(C)c2c(=O)n(CC(=O)N3CCC(N4CCCCC4)CC3)sc2n1 2.39 µM
O=C(Cc1ccc(F)cc1)Nc1ccc(S(=O)(=O)N2CCCC2)cc1 16.9 µM
S=C(NCc1ccccc1)N1CCN(c2cccc(Cl)c2)CC1 26.9 µM
COc1ccc(CNC(=O)N2CCN(c3cccc(Cl)c3)CC2)cc1OC 26.9 µM
COc1ccc(C(=S)NCS(=O)(=O)c2ccc(C)cc2)cc1 21.3 µM
COC(=O)c1sc(NC(=O)c2cc(-c3ccccc3)nc3ccccc23)c(C#N)c1C 6.75 µM
Cc1ccc(NS(=O)(=O)c2cc(NC(=O)c3ccc4c(c3)NC(=O)CS4)ccc2C)c(C)c1 21.3 µM
O=[N+]([O-])c1ccc(CNc2ccc(Cl)cc2)s1 26.9 µM
C[C@H](NC(=O)C1CCN(S(=O)(=O)c2ccccc2)CC1)C(=O)NCc1ccc(Cl)c(Cl)c1 26.9 µM
O=C(O)c1cc(-c2ccc(/C=c3\sc4nc5ccc(Br)cc5n4c3=O)o2)ccc1Cl 0.849 µM
COc1ccc(C(=O)O/N=C(\N)c2ccccn2)cc1 15.1 µM
